± gives the standard deviation of the averaged measurements. The list shows a part of the results.

This assay deals with PfAP2-EXP AP2 domain (GST-tagged). The experiment in a line: gcPBM binding intensity (ln(normalized median fluorescence intensity)); higher = stronger DNA binding. A digest of the protocol: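 Binding intensity is the highest Masliner-normalised natural-log median intensity over replicate spots in either probe orientation. To obtain it, GST-tagged P. falciparum DNA-binding domains made in E. coli were incubated for 1 h on an Agilent 4 × 180k array of primer-extended double-stranded 36-bp intergenic genomic probes plus negative controls. Detection used Alexa488 anti-GST antibody with scanning at 488 nm.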
On to “ACATCTAGGCTTATTTTATGATACATGTGAATATAT [TGCATGCA_negctrl_site325]”, for which the “gcPBM binding intensity (ln)” value worked out at 8.52 ± 0.33. As for “GTTTTTGAGTAGTACACACACAATAAGGATGGATTC [CACACA_site3192]”, the “gcPBM binding intensity (ln)” value amounted to 8.89 ± 0.4. Consider “ACATAACTTATATATACACACAATACAAATATATAT [CACACA_site2774]”, for which the “gcPBM binding intensity (ln)” value was found to be 8.72 ± 0.34. Under “CTTTTTTTTTTGGGGGTGCATGCAAGACATATATTT [GTGCAC_site9660]” stands 10.51 ± 0.028. Under “ACTAAAAGGCTTAAATGTACATATTATATATATATA [XGTACX_site5897]” stands 9.83 ± 0.11; under “ATAATTTCTATTTCACAAAAAAAAAAAAAAAAAAAA [CACACA_negctrl_site1012]”, 7.93 ± 0.38; under “GATATGATTATGTGATGGTGTTTTTGATAGATATTT [CACACA_negctrl_site1445]”, 8.62 ± 0.5.

In the case of “GAATAATTAAAAGGTAGTACAAAGGTTATCAAAAGG [XGTACX_site8496]”, the “gcPBM binding intensity (ln)” value is 8.93 ± 0.26.

As for “AGAAAACCGAAAGAGACACACAACATGTCGATTTAG [CACACA_site3764]”, the “gcPBM binding intensity (ln)” value was found to be 8.74 ± 0.53.

TTGTTCTTTTGAAAGGTGCAAAAGAAAAATAATTAA: the “gcPBM binding intensity (ln)” value was found to be 8.945 ± 0.007.

For “ACGAAGTATATGAATACACACATATTTTTAATGAAA [CACACA_site4070]”, the “gcPBM binding intensity (ln)” value came to 8.32 ± 0.27. To “TTTTTAATCAGAAATATTTATTAAAGAATTTTATAG [GTGCAC_negctrl_site725]” belongs 7.81 ± 0.47. For “ATATACATAATTTGGAGTACAATATCATATAAATAT [XGTACX_site6334]”, the “gcPBM binding intensity (ln)” value is 8.43 ± 0.37. For the sequence “AGTAAATTTGATGGTCGTACAAAAAAAAAGTAGGAC [XGTACX_site2600]”, the “gcPBM binding intensity (ln)” value stood at 9.17 ± 0.4. In the case of “AATGTACAAATACGTACACACATATATATATATATA [CACACA_site1542]”, the “gcPBM binding intensity (ln)” value was 10.1 ± 0.42. Under “GTATAAAATATTTTATGTACATAATATATATATATA [XGTACX_site2489]” stands 9.78 ± 0.18; under “AAATAAAGGAAATGTATATCAACATTAAAATAAGGC [CACACA_negctrl_site441]”, 8.95 ± 0.38. Consider TATATGTATGTTTGTGTGCACACATAAATATTATAT, for which the “gcPBM binding intensity (ln)” value came to 8.76 ± 0.13. On to “TTTTACAATAACAATACACACTATAATATGTAAATA [CACACA_site6772]”, for which the “gcPBM binding intensity (ln)” value amounted to 8.36 ± 0.099. As to “CATTTAAAATTTGTTTGTACATATATATATATATAT [XGTACX_site6729]”, the “gcPBM binding intensity (ln)” value amounted to 10.2 ± 0.26. For “ATATATATATATATATGTACTTATGTCATCATTAAA [XGTACX_site5316]”, the “gcPBM binding intensity (ln)” value is 10.3 ± 0.35. For the sequence “TAGTATAATATGAACACACACACACCGACAAAAAAA [CACACA_site5151]”, the “gcPBM binding intensity (ln)” value stood at 8.87 ± 0.58. To “ATATAATTTATATATTCACACAAGGAATACTTTTAT [CACACA_site5506]” belongs 8.24 ± 0.33; to “AATTGAAAAAGAAATTGTACATTTTATTTTTATTAT [XGTACX_site1973]”, 8.26 ± 0.39. With “ACTATACAGTTATACACACACATATATCTATAATAT [CACACA_site6283]”, the “gcPBM binding intensity (ln)” value amounted to 8.73 ± 0.35.

Turning to “ATACATATATATATATGTACATATGTATTTTTTATT [XGTACX_site105]”, the “gcPBM binding intensity (ln)” value came out at 8.63 ± 0.38. For “TTTACATATTTATATACACACTTTTGCGTGCGTGGT [CACACA_site6647]”, the “gcPBM binding intensity (ln)” value worked out at 8.53 ± 0.55. Under “AATAAAATATATTCCTGTACATATGATTCTTTTTTT [XGTACX_site7980]” stands 8.55 ± 0.57; under “GGATAATATATTAGAACACACATATATATGTAAAAA [CACACA_site185]”, 8.88 ± 0.35. Turning to “ATGGAATAATCACGTACACACAAGAAAAAAAAAAAT [CACACA_site527]”, the “gcPBM binding intensity (ln)” value came to 8.8 ± 0.56. Take “ATTACAAATACAAACACACAAATGTTTTTCATTCAA [CACACA_site7639]”: the “gcPBM binding intensity (ln)” value worked out at 8.22 ± 0.36. With “TTTTATTTGACAAGCACACACTTAAATATATATATA [CACACA_site5792]”, the “gcPBM binding intensity (ln)” value turned out to be 9.57 ± 0.042. Under “AAACAAAAAATAAAATGTACATTTATTACGATAAGT [XGTACX_site2392]” stands 9.04 ± 0.34; under “TATATAAATAAAAAAAGTACATTACTTTTTAATTTA [XGTACX_site285]”, 7.9 ± 0.34. As to “ATCATACCTTTTAATGTACACACATTTCTTTTTTGT [CACACA_site8198]”, the “gcPBM binding intensity (ln)” value came to 8.84 ± 0.47. On to “AGAAAGGATATTATATGTACATATCTTTGTATTTTT [XGTACX_site5040]”, for which the “gcPBM binding intensity (ln)” value is 8.47 ± 0.28. Turning to “CATACCCATAAACACACACACATATATACCTATATA [CACACA_site4745]”, the “gcPBM binding intensity (ln)” value worked out at 8.62 ± 0.49.

For the sequence TTCATTTTATTTTAAGTGCATATTTTTATTTTTTTG, the “gcPBM binding intensity (ln)” value was 8.66 ± 0.24. Consider “TTTTTAATTCAAAAAACTGTATGTTATATGTCAAAT [CACACA_negctrl_site72]”, for which the “gcPBM binding intensity (ln)” value turned out to be 8.29 ± 0.39. In the case of “TAGTATGATAACTTGGGTACATAAATATGGAGTATC [XGTACX_site1296]”, the “gcPBM binding intensity (ln)” value amounted to 8.82 ± 0.38.

In the case of “AGAATTTAGAAACAATGTTGTATATGTAATACCTTT [XGTACX_negctrl_site149]”, the “gcPBM binding intensity (ln)” value turned out to be 8.35 ± 0.42.

On to “TATATATATAAAAAAAGTACGTATTTAATAAAAATA [XGTACX_site4992]”, for which the “gcPBM binding intensity (ln)” value was found to be 8.86 ± 0.33. On to “GATATTATGTGTTTGGTATTTCGATCTTGTCAGGAC [CACACA_negctrl_site426]”, for which the “gcPBM binding intensity (ln)” value turned out to be 8.71 ± 0.52. Regarding “ATTTCTATATATTGTGCATGCCATTACACCAAATAT [TGCATGCA_site813]”, the “gcPBM binding intensity (ln)” value worked out at 9.37 ± 0.33. To “TATATATATAAATACACACACACATATATATATATA [CACACA_site4585]” belongs 10 ± 0.16.

Consider “GTATATAATTTATATTGTACGCATATTATTATCATT [XGTACX_site7277]”, for which the “gcPBM binding intensity (ln)” value stood at 8.57 ± 0.25. Turning to “AATATACAAATTACAAGTACAAATCAATATTATATG [XGTACX_site7521]”, the “gcPBM binding intensity (ln)” value was 8.53 ± 0.28.

Consider “AAAAAAAAAAAAAAAACACACAAACAAATGAATAAA [CACACA_site5769]”, for which the “gcPBM binding intensity (ln)” value was determined as 8.61 ± 0.4. On to “TCATTTTACAGATGTGCATGTGAATCAATCTATTTA [TGCATGCA_site787]”, for which the “gcPBM binding intensity (ln)” value turned out to be 8.69 ± 0.29. With “TGTAGTTTTTATTTATGTACGCATAACATAATTTAA [XGTACX_site104]”, the “gcPBM binding intensity (ln)” value is 8.62 ± 0.36.

For the sequence “ACATAAATAATAAAAACACACATATGTACCTATATA [CACACA_site6982]”, the “gcPBM binding intensity (ln)” value is 8.65 ± 0.2. For the sequence “AAATTATTTCTTTGCGCATGTAGCTTTTATACTATT [TGCATGCA_site819]”, the “gcPBM binding intensity (ln)” value came out at 9.24 ± 0.36. Take “AATACATGCTAAAAACGTACACGTATAAAATTATAT [XGTACX_site3169]”: the “gcPBM binding intensity (ln)” value is 8.62 ± 0.38.

Turning to “GGTGAAATTATTTCTACATGCAGAAATAATTAATTA [TGCATGCA_site194]”, the “gcPBM binding intensity (ln)” value turned out to be 9.04 ± 0.18. To “TTTTTTTTTTTGGCTAGTACATATGTATTTAAAATG [XGTACX_site7770]” belongs 8.62 ± 0.42. “AATTTAATATAATGCACACATAAAAAAAAAATCAAA [CACACA_site1]”: the “gcPBM binding intensity (ln)” value was determined as 8.57 ± 0.28. Consider “TGTTGTTCCAATTTTTGTACATAAAACATATATATA [XGTACX_site5719]”, for which the “gcPBM binding intensity (ln)” value stood at 8.92 ± 0.37.
